Paper PMC12136788
Numbering of substitutions follows the chain as printed. Some of the results follow.

T1: UNK ZnF1-3 (human, UniProt Q9C0B0 31-174)
T1 sequence: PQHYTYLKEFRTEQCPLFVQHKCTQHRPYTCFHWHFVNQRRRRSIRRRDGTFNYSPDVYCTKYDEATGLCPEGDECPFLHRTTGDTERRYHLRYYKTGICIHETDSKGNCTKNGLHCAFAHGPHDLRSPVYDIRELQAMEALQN

B1: chr17:2203652:2203653:-_ENSG00000070366_ENST00000263073|hu_mus|FALSE|FALSE (ssRNA)
RNA: GGGAGUUCUACAGUCCGACGAUCCCUUCCAGGCUGGUAGAUCUGCAGGUCUGGUUUCUUGCUUCUUUUGAUGAUCUUUAGACUUCGGUCCUCUAGUCCAACAGUCUUUGGAAAAGUUUCCUGUGCCUGACUAUUUUCUGCAUCCAACAGAGGAUUGAGCAUCA
B2: chr6:38652254:38652255:-_ENSG00000124767_ENST00000373365|hu_hu|hu_hu_hu_mus_False|28_78 (ssRNA)
RNA: GGGAGUUCUACAGUCCGACGAUCCGAGAACUUCAUAGCAGGGAAGUCAAGCUUCUGGAUUAGCGUCAGUCCAAGAACCCUCGUAUAAAAAUCCAGGGACUUCUUAGGAUCCUUCACUCUUAGCAUCGUUUGCUGCAGUAGAAACAACAGAGGAUUGAGCAUCA
B3: chr1:54531653:54531654:-_ENSMUSG00000073678_ENSMUST00000097739|mus_hu|FALSE|FALSE (ssRNA)
RNA: GGGAGUUCUACAGUCCGACGAUCACACAAAAGAUGAACUCAUUUCAAAGAACAAUGUAAACUGAACUUAGGCCUUGUACACUAUCUUUUUACUAAUAACACCUAUGGUCCCCAUUAGAAUAAACUGUCACUAAAUCAAGGCCACAACAGAGGAUUGAGCAUCA
B4: chr2:237995794:237995795:+_ENSG00000198612_ENST00000392008|hu_mus|motif|central (ssRNA)
RNA: GGGAGUUCUACAGUCCGACGAUCUAUCCUCUUCCACAGAUAUCUUGCAUUAUUCAUGUCGUUCUGGAGCAAGUACAAAGCGGGAAGCUGACCGUACACUGGCGGUGUGGCAAUUCCUCCAGGAGCCUCGAGUUCCUGGUUCUCCAACAGAGGAUUGAGCAUCA
B5: chr10:36717261:36717262:+_ENSMUSG00000019777_ENSMUST00000019911|perfect_dup|motif|central (ssRNA)
RNA: GGGAGUUCUACAGUCCGACGAUCCUGUUUUAUCUUUUCCAUAUAUUCUGGAGUGUUCUGGUUUGUCAUGUUUGAAGGACGGAUAUGCAGUUUGAAGUCUGGUCCAAAAUACUCAAAGUAAUCAUUAUAUGGCAACUCAUUGGGCAACAGAGGAUUGAGCAUCA
B6: chr6:38652254:38652255:-_ENSG00000124767_ENST00000373365|hu_hu|hu_hu_hu_mus_False|8_48 (ssRNA)
RNA: B2 RNA with G57C, U59G, U60G, C63G, G96U, C114A, C116U, U129C
B7: chr14:48151594:48151595:+_ENSMUSG00000037536_ENSMUST00000168833|mus_hu|FALSE|FALSE (ssRNA)
RNA: GGGAGUUCUACAGUCCGACGAUCAUACAAGAUGUACAAAUUUAAGACUAGACAAUUAAAAAAAAAAAACACAAAAUUAUAGCCGCAACACUAUCCUAGCUGCAUUGUGGUGAUUAUAUUGUUCCGUUAGCUGUCCAUUAUAUACAACAGAGGAUUGAGCAUCA
B8: chr5:139702750:139702751:+_ENSMUSG00000036817_ENSMUST00000110883|mus_mus|FALSE|FALSE (ssRNA)
RNA: GGGAGUUCUACAGUCCGACGAUCCCUGGAGGUGGUCCCGUGGAUGGCAGAGUGGGCUGUGAGUGCGUCAGUGCGCGCUGAGAGCAUCCUGCAGUCACGGCAAGUGUAUCCAUUGCUGCUCGCCACCUCUGCUGCCAGUUCACCCAACAGAGGAUUGAGCAUCA
B9: chr4:17845017:17845018:+_ENSG00000109805_ENST00000514176|hu_mus|hu_hu_hu_mus_False|1_78 (ssRNA)
RNA: GGGAGUUCUACAGUCCGACGAUCGCUCUCUUAACUUGUAUCUUCAUUAAGGAACUCGCAAGGUUAAAGUUUACUUUUCUGUAGCGCAGCUGUUUUGGCUCGUCUGGGUAAUCUCAUCUUCAUUUCUGAUGGUGGUUUGGAACUCAACAGAGGAUUGAGCAUCA
B10: chr14:70842435:70842436:-_ENSG00000213463_ENST00000256366|hu_hu|FALSE|FALSE (ssRNA)
RNA: GGGAGUUCUACAGUCCGACGAUCCUGCACCUGUAACCUGUGCUGCACUCUCAGAGACACAGCAUAGCCUGCAUUACGAAAGAGGUCUACAGCAUCCUGGUGCAGCAGGUUCUUUAGGUCUUGGCCAUUUACCGAAAGGAUCUUCAACAGAGGAUUGAGCAUCA
B11: chr1:23374948:23374949:-_ENSMUSG00000026158_ENSMUST00000027343|mus_mus|motif|central (ssRNA)
RNA: GGGAGUUCUACAGUCCGACGAUCCCUCAAAAUCUUAACACCUCACAAAUCGGUACAAGCUAAAGCUGGUGUAUUAUGUACCGGGAAUGAGGAAGUGUUUCUUGUCUUACUUACAGGGAUAUGAUUCACAAAUAAGUAUGUAUCCAACAGAGGAUUGAGCAUCA
B12: chr5:128448638:128448639:+_ENSG00000066583_ENST00000173527|hu_mus|hu_hu_hu_mus_False|68_68 (ssRNA)
RNA: GGGAGUUCUACAGUCCGACGAUCGGCACUCGCCUUAAUUAGGUUCUGAAUUUCCUUGAACUUCGGGUGGUCCUUAUCAGCCACCAGCUGUAGGAGGACAGCCUCACUAGUGGUCACGAUGAUCCCAGUGCGGGCAAGACGCUCCAACAGAGGAUUGAGCAUCA
B13: chr7:7679991:7679992:-_ENSG00000106399_ENST00000396682|hu_hu|hu_hu_hu_mus_False|48_78 (ssRNA)
RNA: GGGAGUUCUACAGUCCGACGAUCUGGGAUGAAUCUUUUCCAGCUUCCCCACGAAGCAGACAGGCUUGUCGAUAUACUGUGGUAACAUGCCGGCGUUGACGCGCGCUUUGGGGAGCUGCAUUAUGUCCUCCAUGAUUCUGCCGCCAACAGAGGAUUGAGCAUCA
B14: 143533557_143533677_4073_CDS_ENSMUSG00000039477_ENSMUST00000151477|mouse|control|control (ssRNA)
RNA: GGGAGUUCUACAGUCCGACGAUCGCGGUGCUCUGUCUUACUCGGUAGUUCUAUCUGCGGCUCGGCAACCUGUGCAAAGUCUGAAACUUCAGAGGGCUCCCGGCAGCCCGGACCUGCUGUGCUCAACGCCUGGGCCUCGAGAGGCAACAGAGGAUUGAGCAUCA
B15: 79659231_79659351_840_CDS_ENSMUSG00000089715_ENSMUST00000109627|mouse|control|control (ssRNA)
RNA: GGGAGUUCUACAGUCCGACGAUCCCCUUGUGGGUCUGGUCGUGGCAGGGGACGGCGAGACAUACGGUGGCAGCGGCGGAUGUCUUUCUUGAGCCGGUGCACCGCAGCGCUGGAGUGCAGCUUGGGCGAGGAGGCGCUGGCGCUCAACAGAGGAUUGAGCAUCA
B16: 70697692_70698340_638_3pUTR_ENSMUSG00000003923_ENSMUST00000092430|mouse|control|control (ssRNA)
RNA: GGGAGUUCUACAGUCCGACGAUCGCUGCUCUUUAUACUUGCUCACAGCUUCUUUGUAUGCUUUCCACUCAGCUUUAAAAUCAGCUUCAUAAACCUUUUUUUCUGCUUCUGGUAGCUCCCUCCACAGGGCUGCAAUUUUCCUAACAACAGAGGAUUGAGCAUCA
B17: chr9:72466633:72466634:+_ENSMUSG00000037674_ENSMUST00000093820|mus_hu|motif|central (ssRNA)
RNA: GGGAGUUCUACAGUCCGACGAUCCUGAUAAGACUGUCCAGGCACAGCAAAAGCAUGAGGUUUCCUGAAACGGUCUUCCACGGGUUCCUGAUAGCUUGGGAGAAUACCAUGGCCAGAAACUGAUGAAUUACCAACCCCACUAUACAACAGAGGAUUGAGCAUCA
B18: chr2:198351390:198351391:-_ENSG00000144381_ENST00000345042|hu_mus|motif|central (ssRNA)
RNA: GGGAGUUCUACAGUCCGACGAUCUCAUUCCCACCCUCCACAGAAAGGCUGCUUCUGAACUCUCAUGUGGUGACACAGCGCGGCAGUCCUGAUGCUCACAGAACAGUAGAGAUGCCUCAGUGAUUUAAGUUGAAAGCAGGACACCAACAGAGGAUUGAGCAUCA
B19: chr7:151048522:151048523:+_ENSG00000013374_ENST00000566856|hu_mus|hu_hu_hu_mus_True|28_48 (ssRNA)
RNA: GGGAGUUCUACAGUCCGACGAUCCUGUUUCUUAUUUAUUACGAUCUUGAUGUAAUUUUCUUGAAAUCCGAAAGUUUCAGCUAUUUGGGACCUCAGUUCUCUACCAGUGAUGUGCAAGCGGGUCUCCAACAAGCUUUUCUUAUCCAACAGAGGAUUGAGCAUCA
B20: chr2:48026839:48026840:+_ENSG00000116062_ENST00000540021|hu_hu|hu_hu_hu_mus_False|48_48 (ssRNA)
RNA: GGGAGUUCUACAGUCCGACGAUCAUAGUGAGCCACUAGCGUCCUAAAUCUGGAACAGUGGCGGUCAUCCGAAAACUGGCCGAUGAAAAACUUUCCCAGUGAAGUGUCCACAAAGCAAACACCAUACACACGAGUGUGACCAGACAACAGAGGAUUGAGCAUCA
B21: chr3:10015032:10015033:+_ENSMUSG00000027533_ENSMUST00000029046|mus_mus|mus_mus_mus_hu_True|8_108 (ssRNA)
RNA: GGGAGUUCUACAGUCCGACGAUCGUUGUUGCCAUCACAAGUGAUGAUACAAUCUGGCUUGGCCAUUGCGCCCAUUUUUCGCAAAGCUAUUCCCACUCCUAGCUCCUUCAUGUAUUCAUCAAAGCCUUGGCUUUCCACCAGGCGCAACAGAGGAUUGAGCAUCA
B22: 29274344_29274560_747_3pUTR_ENSMUSG00000032740_ENSMUST00000040182|mouse|control|control (ssRNA)
RNA: GGGAGUUCUACAGUCCGACGAUCAUACUCAUCCAGGUUAGUCCCAUUUCCUGCAGCCAGAGGUCCAAACGUUUUAACCCAAGUGACCAAGGGGCUGGUCAUGAACUGCUCCAGAAGGGGAGUGAAGAUUUCGUUCUCCAUUUUCAACAGAGGAUUGAGCAUCA

Each binder was assayed against T1, UNK ZnF1-3 (assay: nsRBNS (natural sequence RNA bind-n-seq); RBNS binding buffer (assumed for nsRBNS): 25 mM Tris pH 7.5, 150 mM KCl, 3 mM MgCl2, 0.01% Triton X-100, 500 ug/ml BSA, 20 U/ml SUPERase-In, 4 C; UNK is unkempt and MSI1 is Musashi-1; names of the RNAs are library labels; protein concentration not given here; high values mean tight binding).
B1 showed a binding signal of 0.447 enrichment R. With B2 the binding signal was 0.872 enrichment R. Binder B3 has a binding signal of 1.1 enrichment R. B4 was tested, and the binding signal was 0.677 enrichment R. In the case of B5, the binding signal is reported as 0.998 enrichment R. For B6, the binding signal was 0.902 enrichment R. B7 gave a binding signal of 3.16 enrichment R. B8 gave a binding signal of 0.817 enrichment R. B9 showed a binding signal of 0.509 enrichment R. In the case of B10, the binding signal is reported as 0.54 enrichment R. In the case of B11, the binding signal is reported as 1.41 enrichment R. B12 was tested, and the binding signal was 0.654 enrichment R. Work on B13 yielded a binding signal of 0.591 enrichment R. Work on B14 yielded a binding signal of 1.01 enrichment R. With B15 the binding signal was 0.821 enrichment R. Binder B16 has a binding signal of 0.495 enrichment R. For B17, the binding signal was 1.23 enrichment R. B18 gave a binding signal of 1.42 enrichment R. For B19, the binding signal was 0.598 enrichment R. B20 was tested, and the binding signal was 1.16 enrichment R. B21 showed a binding signal of 0.735 enrichment R. Binder B22 has a binding signal of 1.09 enrichment R.
